Data published in the supplement of paper PMC4967469.

The cell lines below were run with CC1=C(C(=O)Nc2cc3cn[nH]c3cc2F)C(c2ccc(C(F)(F)F)cc2)CC(=O)N1 [GSK429286A] (assay: Viability of human cancer cell lines after 72 h of drug (GDSC screen)). Details: top dose inferred.
Method: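 Human cancer cell lines in 384-well plates, medium with 10% serum, drug for 72 h over a 256-fold dose range (nine 2-fold or five 4-fold steps up to the top dose). Adherent lines were fixed and stained with the nucleic acid dye Syto60, suspension lines read with resazurin; signal relative to control wells, capped at 0 and 100%. One two-parameter sigmoid per drug and line, fitted in a mixed model over all curves with the slope shared within a line.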
Work on “SW982 (soft tissue, adherent, top dose 20 µM)” yielded an AUC of 0.899 and an IC50 greater than 20 µM.
Work on OV-56 (ovary, adherent, top dose 20 µM) yielded an AUC of 0.98 and an IC50 greater than 20 µM.
Work on “NCI-H28 (mesothelioma, adherent, top dose 20 µM)” yielded an AUC of 0.97 and an IC50 greater than 20 µM.
Work on “Calu-6 (lung adenocarcinoma, adherent, top dose 20 µM)” yielded an AUC of 0.975 and an IC50 greater than 20 µM.
A498 (kidney, adherent, top dose 20 µM) showed an AUC of 0.975 and an IC50 greater than 20 µM.
In the case of “ME-180 (cervix, adherent, top dose 20 µM)”, the AUC is reported as 0.982 and the IC50 is reported as greater than 20 µM.
For “GI-ME-N (neuroblastoma, adherent, top dose 20 µM)”, the AUC was 0.705 and the IC50 was 5.91 µM.
“NCI-H2405 (lung adenocarcinoma, adherent, top dose 20 µM)” gave an AUC of 0.933 and an IC50 greater than 20 µM.
GI-1 (glioma, adherent, top dose 20 µM) showed an AUC of 0.815 and an IC50 of 10.4 µM.
In the case of “786-0 (kidney, adherent, top dose 20 µM)”, the AUC is reported as 0.97 and the IC50 is reported as greater than 20 µM.
Cell Line “NB13 (neuroblastoma, adherent, top dose 20 µM)” has an AUC of 0.967 and an IC50 greater than 20 µM.
Work on “PANC-02-03 (pancreas, adherent, top dose 20 µM)” yielded an AUC of 0.972 and an IC50 greater than 20 µM.
“CHP-212 (neuroblastoma, adherent, top dose 20 µM)” was tested, and the AUC was 0.89 and the IC50 was greater than 20 µM.
Cell Line “KYAE-1 (oesophagus, suspension, top dose 20 µM)” has an AUC of 0.942 and an IC50 greater than 20 µM.
“ES5 (Ewing sarcoma, adherent, top dose 20 µM)” showed an AUC of 0.923 and an IC50 greater than 20 µM.
With “LS-180 (large intestine, adherent, top dose 20 µM)” the AUC was 0.981 and the IC50 was greater than 20 µM.
Work on “COLO-205 (large intestine, suspension, top dose 20 µM)” yielded an AUC of 0.987 and an IC50 greater than 20 µM.
Work on “GR-ST (lymphoblastic leukaemia, suspension, top dose 20 µM)” yielded an AUC of 0.947 and an IC50 greater than 20 µM.
For “8305C (thyroid, adherent, top dose 20 µM)”, the AUC was 0.977 and the IC50 was greater than 20 µM.
“GAK (melanoma, adherent, top dose 20 µM)” was tested, and the AUC was 0.985 and the IC50 was greater than 20 µM.
Work on “SW900 (lung squamous cell carcinoma, adherent, top dose 20 µM)” yielded an AUC of 0.982 and an IC50 greater than 20 µM.
For “YT (lymphoid neoplasm, suspension, top dose 20 µM)”, the AUC was 0.896 and the IC50 was 18 µM.
“OPM-2 (myeloma, suspension, top dose 20 µM)” showed an AUC of 0.96 and an IC50 greater than 20 µM.
In the case of “HGC-27 (stomach, adherent, top dose 20 µM)”, the AUC is reported as 0.983 and the IC50 is reported as greater than 20 µM.
Work on “SW837 (large intestine, adherent, top dose 20 µM)” yielded an AUC of 0.983 and an IC50 greater than 20 µM.
“NMC-G1 (glioma, adherent, top dose 20 µM)” gave an AUC of 0.981 and an IC50 greater than 20 µM.
For “NCI-H2052 (mesothelioma, adherent, top dose 20 µM)”, the AUC was 0.979 and the IC50 was greater than 20 µM.
“SN12C (kidney, adherent, top dose 20 µM)” gave an AUC of 0.981 and an IC50 greater than 20 µM.
“OCI-M1 (acute myeloid leukaemia, suspension, top dose 20 µM)” was tested, and the AUC was 0.886 and the IC50 was 13.1 µM.
For “KOPN-8 (B-cell leukaemia, suspension, top dose 20 µM)”, the AUC was 0.951 and the IC50 was greater than 20 µM.
“Detroit562 (head and neck, adherent, top dose 20 µM)” showed an AUC of 0.969 and an IC50 greater than 20 µM.
Cell Line RKN (ovary, adherent, top dose 20 µM) has an AUC of 0.961 and an IC50 greater than 20 µM.
“RKO (large intestine, adherent, top dose 20 µM)” showed an AUC of 0.981 and an IC50 greater than 20 µM.
In the case of “ES1 (Ewing sarcoma, adherent, top dose 20 µM)”, the AUC is reported as 0.953 and the IC50 is reported as greater than 20 µM.
With “MZ1-PC (pancreas, adherent, top dose 20 µM)” the AUC was 0.967 and the IC50 was greater than 20 µM.
In the case of “LAMA-84 (chronic myeloid leukaemia, suspension, top dose 20 µM)”, the AUC is reported as 0.921 and the IC50 is reported as greater than 20 µM.
In the case of “GCT (soft tissue, adherent, top dose 20 µM)”, the AUC is reported as 0.982 and the IC50 is reported as greater than 20 µM.
With “EN (endometrium, adherent, top dose 20 µM)” the AUC was 0.926 and the IC50 was greater than 20 µM.
In the case of “697 (lymphoblastic leukaemia, suspension, top dose 20 µM)”, the AUC is reported as 0.892 and the IC50 is reported as 15.4 µM.
Cell Line “KNS-42 (glioma, adherent, top dose 20 µM)” has an AUC of 0.976 and an IC50 greater than 20 µM.

Lines with a small IC50 respond at low doses; a fit beyond the top or the lowest dose is shown as a bound at that dose. AUC, from the same fit, is the share of area under the viability curve across the 256-fold dose range; it is 1 without any effect and falls as sensitivity rises. A top dose marked as inferred is not printed in the source and was worked back from the curve model.
